{"source": "the supplement of paper PMC12632987", "binders": {"B1": {"name": "traf2_out_6_156_2432 (protein)", "chain": "SPEEILKEAKEEIKKLIKELAAAPESKKIKYISKIAGTFYRALQRLRAAGASLEEIEKAAEELIETAEKEAKKAGLPEDTINLLLSSLNAVRDVALASAA"}, "B2": {"name": "traf2_out_17_178_1673 (protein)", "chain": "DKEKERKKISEYTDKLIDLTEETGTRLLALAEAEGALSPEELALLRQALRSGSANTLLAVARRLAPKLPSAAEAQALLDEFEKEKKELSKKIAEALAKYE"}, "B3": {"name": "traf2_out_17_162_1610 (protein)", "chain": "SELEERLRRIEERLERLEKKLKELEEKLKEIEKLSKEELTDLLVEASEARREAREALEEVEELRDLLDPERYEELSRRLEELAEKFQRIANEFYKELEKK"}, "B4": {"name": "traf2_out_13_95_1209 (protein)", "chain": "EEEKTKKLREVTNEIADDLIDFVEALAAEIEAATGRAEHRDAILAALRRYGVRAAVALIREYAAADPAHAAVYRAAADAAEAKIREAGKRIAKEDKKIEE"}, "B5": {"name": "traf2_out_6_156_2441 (protein)", "chain": "MKEEILKKTKEEIEEYIKKLAESSEEKHIIWFNKIAGAIYRGLQQLRDAGASLEELKEFAEELKEVIEKYLKKYGLPESIKNEVLSSVNAVFDVALREAA"}, "B6": {"name": "traf2_out_20_3_2232 (protein)", "chain": "SELEKEAEKKLEEALKKIEEIIKVADEETKKLLEELKKKLEEAKELDPVDRLVVASEVRRQLLLLKQEAEAAGNEELAKLLEEAAELLQRLMQLLYKIIE"}, "B7": {"name": "traf2_out_17_178_1736 (protein)", "chain": "TKEEIRKEIAELADERLDVTKEAMDKLKAILEAEGVLTPELAALLDQVAKTSNLYAFEEVADKAIALSSRKEEVQALKDETVKKLKELDKKIQEAVDKLE"}, "B8": {"name": "traf2_out_3_89_2296 (protein)", "chain": "SAAREAKLEEARRNMERYIRGFRKSAEYVAKQMLADGHSLDTLRGVLEAARNALVEEFRESLKERGLSEEDIEELVKKLTEELDKIVEEVVAAAEKARAA"}, "B9": {"name": "traf2_out_11_169_823 (protein)", "chain": "EEAEFNRKINDKALELNDEAVKKLEEFALALAKEEGLDVEEVKAIFEEHKGASLSAVAAALIEHFRSKGKEEAAEKVLEKYEELKEEINKKMSEFLKELK"}, "B10": {"name": "traf2_out_17_178_1672 (protein)", "chain": "DKEKEREKISELTDELIDLTEETGRRLLALAEAEGRLSPEELAALRAAIRSGSANTLLAVARRLAPRLSRAEEANAILAEFEKKYRELSKEIAEAYKKYE"}, "B11": {"name": "traf2_out_17_162_1590 (protein)", "chain": "SELEKELEEIEKELEELEKKLKELKEKLKNIDKLSKEELTDLLVEASEARRRALELLERIESLKDKLPEEKYEELSERAERLAEEFQRIANKFYKKLEEK"}, "B12": {"name": "traf2_out_20_3_2136 (protein)", "chain": "SELEEELKKELEKAKKLLEKAAALADKETAAKLKALIKRLEASEELSPEDRLVEFSEIRREVLELALAAEAAGKAELAKLLNEAADALNKAMNLLMKIIE"}, "B13": {"name": "traf2_out_11_155_693 (protein)", "chain": "EEKKKLNNELVDKMMEIEDETKKELEKIAKEAAKEHPEHAKEIAALVKESKKFSATTFGGRLAELFKKLGLEEYAKKVEKLLEESQKKKNEIYKEIEKKI"}, "B14": {"name": "traf2_out_18_117_1802 (protein)", "chain": "SELEEAQRRFREALERFEEEARRASRIAGKLIEKHPHNLPEEATDAIVEFGEIKRRARELALLAEEHADDLETLRRLVEETERLTERMREIRRRLEELLK"}, "B15": {"name": "traf2_out_11_169_791 (protein)", "chain": "EEEERNRKIIDFALELDDEAKKELKEEALKLAKEAGLDEEEIKAIFEKNKNASFSAIAADLIAYFRSKGKEEAAKKLEAKYEELQDERNKKFSEFLKSLE"}, "B16": {"name": "traf2_out_17_178_1729 (protein)", "chain": "SKEEILKKISEAADELLDVNEAAVDRLRAIAEREGVLTPELRARLDAVHKTANLYALEEVARELIARTSRAEEVQALLDETSKRMRELNKKIQELVEKLE"}, "B17": {"name": "traf2_out_15_48_1359 (protein)", "chain": "STAALRATARQINDLIDATLDEVAKELKALLPKAPPEVQPILQEAIDIASNHRSINDTIALLDEAIAKSDPELAAKLQALRDRLLATKKEASALFNATEK"}, "B18": {"name": "traf2_out_20_3_2153 (protein)", "chain": "SELEKKAEEAREEAIELLRRAAELADPETAARLEELRARVEASKELSYEDRLVVLSEVRREVLALAEEARRAGDEELARVLEEAAEALNRAMNLTYKIIE"}, "B19": {"name": "traf2_out_15_48_1356 (protein)", "chain": "STEKLRETARKINDRIDATKDAVAKELTALLPKLPEENKALAQQAIDTASNNGSINDTIALLDELAKKVDPELKAKLNALRDRLLATKREGSKLFNETLK"}, "B20": {"name": "traf2_out_6_156_2448 (protein)", "chain": "MLEKILEETKKKIEEGIKKLAAAPESQKIRWISRIAGTFYRALQKMREAGFSLEEIKEFIEKLRKFLEEKADEYGLDEDTKNLLLASFNAVAEVALEEAK"}, "B21": {"name": "traf2_out_18_167_1826 (protein)", "chain": "SEEAEKKINELRDKLIEYSEIRRLALAAIEALRTDPAAAEAALAAVIAALEKVPEFRPDAERLKALPREELPAALEEIAERAQRKMNEIYKEIEEIKKKA"}, "B22": {"name": "traf2_out_18_167_1887 (protein)", "chain": "EEELQKKIDELSDRLVRLSEERRAALEVLEALEESREKAKALAEEYLKKYPDSEVIKAILEALKTKSDEEVKAFLREQADALQREANRVYEELEELRKKL"}, "B23": {"name": "traf2_out_13_95_1121 (protein)", "chain": "SKEVAEKIMEIADKMEEKVLEILEKLLKEAKAKGIAEEEMQEILELAKHGTINTVIHKLKELAKKYPEMKEELEAAIKELEKIREEAGKEVAKILKEEKE"}, "B24": {"name": "traf2_out_11_169_815 (protein)", "chain": "EEAEKNRKINDFALELNDEAKKKLLEHAKKLAKEAGLDVEEVEKIFEENKNKSLSAVAAALIKYFRSKGKEEEAEAVLKKYEELKEEINKKVTEKIKELE"}, "B25": {"name": "traf2_out_14_166_1283 (protein)", "chain": "MSPEEIERIRKIVDELEPLNDAAVARAEALLAANRDKLSPEQLAEMERLLDIARRNIGSSAINALRRMAEIAAAAGLAETAAAFRALAEELEKRLSELNK"}, "B26": {"name": "traf2_out_18_117_1799 (protein)", "chain": "SELQEAQERFQRTSEEFERALEEAQRVATQLIEAHPKALPAEATDAIVEFGELKRRFLQLQQLHQENPNNLELQKQIVEELERLLEETRRVLEELRRILA"}, "B27": {"name": "traf2_out_20_3_2128 (protein)", "chain": "EELEKEAEKALKEAIKLLEEAAALATPERAAVLRELAATLEASRSLSPSDRLVTVSEIRRQVRALALEAAAAGDAELAAVLEKAADALNKLMGLLYKIIE"}, "B28": {"name": "traf2_out_19_16_1983 (protein)", "chain": "AEEEAERLLAEMRRHLDEALRLAEETVANLDKLSRDELMDRLVEISELVRRAQEALQRALELLADDPERRAAIRAEYDERLDRINRLMTKIVDRLLELLK"}, "B29": {"name": "traf2_out_20_3_2189 (protein)", "chain": "EELEEELEEELEEAEKLLKEAAKLADPETAKKLEELIKRLKESRELSYEDQLVELSRIRREVLRLAEEAKAAGKEELAKKLEEAAEELGEAMNLVYKIIE"}}, "note": "The full ranking holds about 1,800 sequences; the median of “median log2 fold change of GCK-ALFA target abundance (FLAG IP / Myc IP barcode read proportion)” is about 0.14, and the lowest 2% start at about -0.84. The list shows a part of the results.", "data": [{"target": "T1, TRAF2, Q12933", "T1 chain": "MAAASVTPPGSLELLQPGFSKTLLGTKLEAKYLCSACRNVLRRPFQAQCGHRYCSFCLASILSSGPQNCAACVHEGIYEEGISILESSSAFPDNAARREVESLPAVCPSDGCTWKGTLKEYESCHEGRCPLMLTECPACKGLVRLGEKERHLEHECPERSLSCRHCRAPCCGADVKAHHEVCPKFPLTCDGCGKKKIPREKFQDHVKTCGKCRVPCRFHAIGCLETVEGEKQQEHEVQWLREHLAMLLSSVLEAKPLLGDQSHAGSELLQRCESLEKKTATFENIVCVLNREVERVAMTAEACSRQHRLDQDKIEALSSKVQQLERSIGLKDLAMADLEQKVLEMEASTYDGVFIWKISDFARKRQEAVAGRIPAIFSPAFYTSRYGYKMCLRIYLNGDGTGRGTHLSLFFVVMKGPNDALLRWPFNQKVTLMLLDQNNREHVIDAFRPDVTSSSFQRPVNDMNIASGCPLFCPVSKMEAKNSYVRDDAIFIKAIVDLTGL", "experiment": "median log2 fold change of GCK-ALFA target abundance (FLAG IP / Myc IP barcode read proportion) (log2 ratio); each designed protein is fused to an ALFA-tag nanobody in HEK293 cells to bring the named protein to FLAG-tagged glucokinase (GCK); Myc marks an untargeted standard; higher = target protein stabilised (more abundant)", "settings": "target protein: 3xFLAG-MCP-GCK-ALFA reporter; HEK293 landing pad (RPLP)", "outline": "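An ALFA-nanobody-fused binder library was recombined into HEK293 landing-pad cells and induced with 2 μg mL^−1 doxycycline. Cells were transfected with a plasmid expressing a FLAG-tagged target and a Myc-tagged standard. After 48 h, lysates underwent anti-FLAG and anti-Myc immunoprecipitation, and circular RNA barcodes were reverse transcribed, amplified and sequenced. Target abundance is the per-binder median log2 ratio of FLAG to Myc barcode read proportions. Barcodes needed ≥10^−7 proportion in both replicates, binders ≥3 barcodes per replicate, and a 10^−6 pseudocount was added; the two replicates were pooled.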", "values": [{"binder": "B1", "median log2 fold change": 0.0462}, {"binder": "B2", "median log2 fold change": 0.111}, {"binder": "B3", "median log2 fold change": 0.32}, {"binder": "B4", "median log2 fold change": -0.0226}, {"binder": "B5", "median log2 fold change": 0.0652}, {"binder": "B6", "median log2 fold change": -0.00636}, {"binder": "B7", "median log2 fold change": 0.146}, {"binder": "B8", "median log2 fold change": -0.311}, {"binder": "B9", "median log2 fold change": 0.0147}, {"binder": "B10", "median log2 fold change": 0.219}, {"binder": "B11", "median log2 fold change": 0.215}, {"binder": "B12", "median log2 fold change": 0.345}, {"binder": "B13", "median log2 fold change": 0.253}, {"binder": "B14", "median log2 fold change": 0.335}, {"binder": "B15", "median log2 fold change": 0.255}, {"binder": "B16", "median log2 fold change": 0.0472}, {"binder": "B17", "median log2 fold change": 0.249}, {"binder": "B18", "median log2 fold change": 0.103}, {"binder": "B19", "median log2 fold change": 0.291}, {"binder": "B20", "median log2 fold change": -0.22}, {"binder": "B21", "median log2 fold change": 0.154}, {"binder": "B22", "median log2 fold change": 0.244}, {"binder": "B23", "median log2 fold change": 0.00218}, {"binder": "B24", "median log2 fold change": 0.235}, {"binder": "B25", "median log2 fold change": 0.229}, {"binder": "B26", "median log2 fold change": 0.225}, {"binder": "B27", "median log2 fold change": 0.231}, {"binder": "B28", "median log2 fold change": -0.215}, {"binder": "B29", "median log2 fold change": -0.158}]}]}
